{"source": "the supplement of paper PMC12645437", "about": "“Orthogonal IMiD-Degron Pairs Induce Selective Protein Degradation in Cells” (ACS Chemical Biology, 2025)", "note": "The other results are listed elsewhere or left out.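 Note: jurkat cells carrying a lentiviral library of mutant zinc finger degrons fused to EGFP plus mCherry, mCherry+ cells FACS sorted, degron abundance counted by next-generation sequencing.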"}
{"biological_target": "no compound (DMSO)", "experiment": "log2 fold change of degron read counts, EGFP-low vs EGFP+ sorted cells; higher = lower degron-EGFP level without compound (poor expression or instability)", "conditions": "compound: DMSO control; 18 h"}
{"sequence": "FHCPICGASFTQKGNLLRHIKL", "log2 fold change of degron read counts": -0.646}
{"sequence": "FHCEICGRVFTQKGNLLRHIKL", "log2 fold change of degron read counts": -0.818}
{"sequence": "FVCPICGHHFTQKGNLLRHIKL", "log2 fold change of degron read counts": 0.0468}
{"sequence": "FVCNQCGRKFTQKGNLLRHIKL", "log2 fold change of degron read counts": -0.823}
{"sequence": "FCCEQCGAFFTQKGNLLRHIKL", "log2 fold change of degron read counts": -1.34}
{"sequence": "FVCNICGADFTQKGNLLRHIKL", "log2 fold change of degron read counts": -1.91}
{"sequence": "FGCPQCGARFTQKGNLLRHIKL", "log2 fold change of degron read counts": -0.536}
{"sequence": "FHCEICGHWFTQKGNLLRHIKL", "log2 fold change of degron read counts": -0.272}
{"sequence": "FHCPVCGALFTQKGNLLRHIKL", "log2 fold change of degron read counts": 0.0112}
{"sequence": "FRCPICGHPFTQKGNLLRHIKL", "log2 fold change of degron read counts": 0.599}
{"sequence": "FKCPICGHRFTQKGNLLRHIKL", "log2 fold change of degron read counts": -1.25}
{"sequence": "FTCNICGAEFTQKGNLLRHIKL", "log2 fold change of degron read counts": -1.51}
{"sequence": "FHCEQCGAVFTQKGNLLRHIKL", "log2 fold change of degron read counts": -1.15}
{"sequence": "FCCPICGAPFTQKGNLLRHIKL", "log2 fold change of degron read counts": 1.12}
{"sequence": "LECEICGFWCTQKGNLLRHIKL", "log2 fold change of degron read counts": 0.912}
{"sequence": "FMCEQCGACFTQKGNLLRHIKL", "log2 fold change of degron read counts": -1.3}
{"sequence": "FHCDICGAKFTQKGNLLRHIKL", "log2 fold change of degron read counts": -2.39}
{"sequence": "FQCPQCGAPFTQKGNLLRHIKL", "log2 fold change of degron read counts": -1.09}
{"sequence": "FKCPQCGAMFTQKGNLLRHIKL", "log2 fold change of degron read counts": -0.595}
{"sequence": "FSCEICGHEFTQKGNLLRHIKL", "log2 fold change of degron read counts": -2.5}
{"sequence": "FNCPICGRIFTQKGNLLRHIKL", "log2 fold change of degron read counts": 0.0726}
{"sequence": "LMCEICGFLCTQKGNLLRHIKL", "log2 fold change of degron read counts": 0.451}
{"sequence": "FICSVCGHCFTQKGNLLRHIKL", "log2 fold change of degron read counts": 0.275}
{"sequence": "FVCNVCGAQFTQKGNLLRHIKL", "log2 fold change of degron read counts": -0.595}
{"sequence": "FHCDICGARFTQKGNLLRHIKL", "log2 fold change of degron read counts": -0.909}
{"sequence": "FSCDVCGALFTQKGNLLRHIKL", "log2 fold change of degron read counts": -0.822}
{"sequence": "FKCEICGAIFTQKGNLLRHIKL", "log2 fold change of degron read counts": -1.63}
{"sequence": "FACPVCGATFTQKGNLLRHIKL", "log2 fold change of degron read counts": 0.0436}
{"sequence": "FKCNQCGHCFTQKGNLLRHIKL", "log2 fold change of degron read counts": -0.131}
{"sequence": "FHCPVCGACFTQKGNLLRHIKL", "log2 fold change of degron read counts": -0.269}
{"sequence": "FVCPVCGAVFTQKGNLLRHIKL", "log2 fold change of degron read counts": -0.431}
{"sequence": "LTCPICGFTCTQKGNLLRHIKL", "log2 fold change of degron read counts": 0.0728}
